Laboratory results: PubChem BioAssay AID1878 (Sanford-Burnham Center for Chemical Genomics, 2009)
The whole screen tested about 1,000 compounds, of which about 200 (20%) were called active. No stated cut-off is given here; in the data, active means inhibition above about 55%; inactive means the rest. This is a selection; strong and weak results do not stand in their true shares. Potency and affinity values are given separately.

Target: Dual specificity protein phosphatase 3 (Homo sapiens) (UniProt P51452)
Chain of UniProt P51452 (P51452 whole entry, looked up): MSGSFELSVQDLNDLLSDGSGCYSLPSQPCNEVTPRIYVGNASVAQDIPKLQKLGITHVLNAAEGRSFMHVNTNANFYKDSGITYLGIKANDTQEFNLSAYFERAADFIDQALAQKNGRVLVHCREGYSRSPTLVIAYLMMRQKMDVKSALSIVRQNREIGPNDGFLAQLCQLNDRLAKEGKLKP
Assay: VHR1 phosphatase inhibitors, biochemical (AID 1878)
Conditions: recombinant VHR phosphatase, fluorogenic substrate; at 13.3 µM; active compounds read high

SMILES | inhibition
Cc1ccc(CNc2ccc(N3CCOCC3)c(Cl)c2)cc1 | inactive: 8%
Cc1cc(OC(C)C(=O)NC2CC(C)(C)NC(C)(C)C2)c2c(C)cc(=O)oc2c1 (configuration not stated) | inactive: -0.6%
COCCCNC(=S)N(CCN(C)C)Cc1cc2cc3c(cc2[nH]c1=O)OCCO3 | inactive: -7.7%
O=S(=O)(Nc1ccc2ccccc2n1)c1ccccc1Cl | inactive: 3.5%
CCC1CCCCN1CCCNC(=O)c1ccc2c(c1)NC(=O)CN2C (configuration not stated) | inactive: -26.5%
CN1CCN(Cc2cn(C)c3ccccc23)CC1CCO (configuration not stated) | inactive: -8%
O=C(Nc1nnc(SCc2c(Cl)cccc2Cl)s1)c1ccc2ncsc2c1 | active: 66.9%
CCN(CC)CCCNC(=O)CCn1nc(-c2ccc(Cl)cc2)ccc1=O | inactive: 18.8%
CCOc1ccc(Br)cc1S(=O)(=O)NC1CC(C)(C)NC(C)(C)C1 | inactive: -2.1%
O=C1NC(=S)S/C1=C\c1ccc(SCc2ccco2)o1 | inactive: 40.9%
O=C(COc1cc2oc(=O)c3c(c2cc1Cl)CCC3)NCCCN1CCOCC1 | inactive: -6.6%
Cc1cc(C(=O)NC2CCCc3c2cnn3-c2cccc(C)c2C)c(C)o1 (configuration not stated) | inactive: -5.2%
CCOc1ccccc1CNS(=O)(=O)c1cc(-c2cc(C)no2)ccc1C | inactive: 12.3%
O=C(O)c1c2c(nc3ccccc13)/C(=C/c1ccc(O)cc1)CC2 | inactive: 44.4%
CCOc1ccc(S(=O)(=O)NCCCn2ccnc2)cc1NC(C)=O | inactive: 2.2%
CCOc1ccc(NC(=O)[C@H](C)NC(=O)C2CC(=O)N(c3ccc(OC)cc3)C2)cc1 (some centres not stated) | inactive: 18%
OC(CNCc1ccc(Cl)c(Cl)c1)c1ccccc1 (configuration not stated) | inactive: -14.3%
COc1ccc(Cn2c(-c3ccc(C)cc3)nc3c(c(=O)c4ccccc4n3C)c2=O)cc1 | active: 85.9%
O=C(Nc1cc([N+](=O)[O-])ccc1O)c1cccc(C(=O)Nc2cc([N+](=O)[O-])ccc2O)c1 | active: 98.4%
O=C(NCc1ccc(F)cc1)C1CCN(S(=O)(=O)c2cccc3nonc23)CC1 | inactive: 4.8%
Cc1cccc(S(=O)(=O)N2CCCc3ccccc32)c1 | inactive: 6.7%
CSCCNC(=O)c1ccc2nc(Cc3ccccc3F)oc2c1 | inactive: -8.6%
CCN(CC)CCNC(=O)Cn1cnc2sc(C)c(S(=O)(=O)N3CC(C)CC(C)C3)c2c1=O (configuration not stated) | inactive: -8.4%
Oc1ccc(N=Cc2c(O)ccc3ccccc23)cc1 | inactive: 13.1%
CC(=O)Oc1ccc2c(c1)C(=O)c1ccccc1C2=O | inactive: 14%
CCCCC(=O)Nc1ccccc1N1CCN(c2ccc(F)cc2)CC1 | inactive: -6.4%
Cc1cc(-c2ccccc2)nc(N/N=C/c2ccccc2F)n1 | inactive: -3.9%
